Hit rate of the full screen: of about 48,000 compounds, about 120 (0.25%) were called active. Not shown: some 4% with an inconclusive outcome. The call rests on the fitted dose curve; in most records, active means well fitted activation curve with a large enough effect; inconclusive means small, poorly fitted or top-dose-only effect, or another doubt; inactive means no such curve, though single readings can be large or run the other way. This is one part of the list.

60 compounds from PubChem BioAssay AID1508624 (National Center for Advancing Translational Sciences (NCATS), 2021) can be followed below.

This experiment can be described thus: Primary qHTS for Identification of Small Molecule Activators of Huntingtin-Antisense Promoter Activity. Further: nearly all actives have a fitted effect of over 55% in size. To be noted: HEK293 HTT-AS promoter firefly luciferase reporter (activity 0% = vehicle and -100% = no light), 24 h; series mostly up to 57.5 µM; activity change, positive = activation: at the top concentration. The method, boiled down:
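Quantitative HTS used concentration series of up to 57.5 uM final on HEK293 luciferase reporter cells, 24 h at 37 degrees C. Readout was Dual-Glo firefly luminescence.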
On the technique in general: Quantitative high-throughput screening tests each substance at several concentrations.
In the case of `Cc1c(C(=O)OCc2ccccc2)[nH]c2c1C(=O)CC(c1ccc(N(C)C)cc1)C2` (stereo not given), the “activity change, positive = activation” value is inactive: -11.6%.
Next, `COc1ccc(NC(=O)CN2C(=O)C(C)(C)c3cc(S(=O)(=O)N4CCCCC4)ccc32)cc1Cl`: inactive: -24.2%; `Cc1nn2c3c(cnc2c1-c1ccc(Cl)cc1)C(=O)CC(c1ccc(C(C)C)cc1)C3` (stereo not given): inactive: 3.69%.
Consider `Cc1ccc(S(=O)(=O)C(CNC(=O)COc2ccccc2)c2cccs2)cc1` (stereo not given), for which the “activity change, positive = activation” value was inactive: -33.4%.
Next, `COC(=O)C1=C(C)NC(=O)NC1c1cn(-c2ccccc2)nc1-c1ccc(OC)c(Br)c1` (stereo not given): inactive: -22.4%; `COc1ccc(-c2ccc3ncc4c(c3c2)n(-c2ccc(N3CCNCC3)c(C(F)(F)F)c2)c(=O)n4C)cn1`: inactive: -93.5%.
As for `COc1cccc(-n2c(SCC(=O)c3ccccc3)nc3c([nH]c4ccccc43)c2=O)c1`, the figure is inactive: 5.19%.
Next, `O=c1oc2cc(O)ccc2cc1-c1nc(-c2ccc(Cl)c(Cl)c2)cs1`: inactive: 5.68%; `CCCn1c(COc2cccc(C)c2)nc2ccccc21`: inactive: -2.78%; `COc1cc(C(=O)N2CCNC(=O)C2CC(=O)Nc2ccc(C)c(C)c2)cc(OC)c1OC` (stereo not given): inactive: 2.27%.
For the compound `CCCCNc1nc2c(-c3cccc(C)c3)nnn2c2ccccc12`, the “activity change, positive = activation” value is inactive: -1.87%.
In the case of `Cc1ccc(/C=C/c2onc(C)c2S(=O)(=O)N2CCC(C(=O)Nc3ccc(OC(F)(F)F)cc3)CC2)cc1`, the “activity change, positive = activation” value was inactive: -11.8%.
As for `COc1ccc2c(c1)c1c(c(=O)n(-c3ccccc3C)c(=O)n1CC(N)=O)n2C`, the figure is inactive: -6.9%; as for `CCCN(CCC)C(=O)Cn1c(=O)n(CCCCCC(=O)Nc2ccccc2)c(=O)c2sccc21`, inactive: -9.98%.
Next, `Cc1ccc(CNC(=O)CCc2c(C)nc3c(-c4ccc(F)cc4)c(C)nn3c2C)cc1`: inactive: -11.7%; `Cc1cccc(OCC(=O)Nc2cccc(C(=O)OCc3cc(=O)n4nc(C(C)C)sc4n3)c2)c1`: inactive: 28.7%; `COc1cc2c(cc1NC(=O)COc1ccc(Br)c(C)c1)oc1ccccc12`: inactive: -11.3%.
Next, `CCC12CN3CC(CC)(CN(C1)C3c1cccc(OC)c1O)C2=O` (stereo not given): inactive: 9.75%.
In the case of `COc1ccc(-c2c(C)c3ccc(O)c(CN4CCCCC4)c3oc2=O)cc1OC`, the “activity change, positive = activation” value was inactive: -8.58%.
For `Cc1cccc(N2CCN(C(=O)c3cn(C)c4ccc(S(=O)(=O)N(C)C)cc4c3=O)CC2C)c1` (stereo not given), the “activity change, positive = activation” value is inactive: -0.22%.
Next, `CCc1ccc(-n2c(SCc3nc(-c4cc(OC)ccc4OC)no3)nnc2-c2ccccc2)cc1`: inactive: -31.9%.
`COc1ccc(C2=CC(c3ccccc3Cl)n3nc(-c4ccc(C)cc4)nc3N2)cc1` (stereo not given): the “activity change, positive = activation” value was inactive: -32.4%.
Next, `CCOC(=O)c1c(NC(=O)CCCOc2ccc(C)cc2)sc2c1CCC(C)C2` (stereo not given): inactive: -20.1%; `CCc1ccc(CNC(=O)c2ccc(CS(=O)c3ccc(Br)cc3)o2)cc1` (stereo not given): inactive: -23.3%.
In the case of `CCc1nnc(SCC(=O)Nc2ccc(Cl)cc2F)c2cc3occc3n12`, the “activity change, positive = activation” value is inactive: -16.7%.
As for `CCOC(=O)Cn1c(=O)n(-c2ccccc2OC)c2nc(-c3ccccc3)nc(C(N)=O)c21`, the figure is inactive: -17.6%; as for `COc1ccc(-c2nc3ccccc3s2)cc1NC(=O)c1ccc(C#N)cc1F`, inactive: -9.62%; as for `CCn1c(C(=O)NCc2ccc(C)cc2)cc2sc(Cl)cc21`, inactive: -19.4%.
Next, `COc1ccc(NC(=O)C(NC(=O)Cc2cccs2)c2ccc(OC)cc2)cc1` (stereo not given): inactive: -1.8%; `Cn1c2c(c(=O)n(C)c1=O)C(c1cccc(O)c1)CC(=O)N2` (stereo not given): inactive: -0.808%.
As to `COc1cccc(NS(=O)(=O)c2ccc3[nH]c4c(c3c2)CCCCCC4)c1`, the “activity change, positive = activation” value was inactive: -19.9%.
As for `CCc1ccc(CN(C(=O)c2ccc(OC)cc2)C2CCS(=O)(=O)C2)cc1` (stereo not given), the figure is inactive: 3.19%; as for `COc1ccc(-c2onc(C)c2C)cc1S(=O)(=O)N1CCc2ccccc21`, inactive: -54.7%; as for `Cc1noc(C)c1S(=O)(=O)Nc1ccc(C(=O)Nc2ccc(C(C)C)cc2)cc1`, inactive: -22.2%.
Consider `CCOC(=O)c1ccc(NC(=O)CC2Nc3cccc4cccc(c34)NC2=O)cc1` (stereo not given), for which the “activity change, positive = activation” value is inactive: -22%.
As for `COc1c(C)cccc1C(=O)Nc1ccc(Cl)c(-c2nc3cc(C)ccc3o2)c1`, the figure is inactive: -2.84%; as for `COc1ccc(C(=O)Nc2ccc(N3CCN(c4ccccc4)CC3)c(C(=O)O)c2)cc1`, inactive: 24.1%.
As for `COc1ccc(-c2nc3sc(CCNC(=O)Cc4ccc(Cl)cc4)c(C)n3n2)cc1`, the figure is inactive: 5.35%; as for `CC(C)CCOc1ccc(Cn2c(=O)sc3ccccc32)cc1`, inactive: -10.5%.
Consider `CCOc1ccc(CCNC(=O)CSc2nc3ccccc3nc2Cc2ccc(C)cc2)cc1OCC`, for which the “activity change, positive = activation” value is inactive: -23.1%.
Next, `CC(=O)OC[C@H]1O[C@@H](n2ncc(=O)[nH]c2=O)[C@H](OC(C)=O)[C@@H]1OC(C)=O`: inactive: -33.3%.
As for `CCN(CC)c1ccc(C(=O)NCc2ccc3c(c2)CCN3C(=O)c2cccc(C)c2)cc1`, the figure is inactive: 7.8%.
As for `CCN(CC)c1ccc(NC(=O)CN(C)S(=O)(=O)c2cccc3nsnc23)c(C)c1`, the figure is inactive: -18.6%.
With `CCOc1ccc(CCNC(=O)C(CC(C)C)N2Cc3ccccc3C2=O)cc1OCC` (stereo not given), the “activity change, positive = activation” value is inactive: -17.1%.
In the case of `CC(C)c1ccc(NC(=O)c2ccc3oc(=O)c(S(=O)(=O)c4ccc(F)cc4)cc3c2)cc1`, the “activity change, positive = activation” value is inactive: -60%.
Next, `CCOCCc1nn2c(=O)cc(COC(=O)COc3ccc(C)c(C)c3)nc2s1`: inactive: -5.75%; `COc1cn(CC(=O)Nc2c(C)cc(C)cc2C)c(CN2CCCCC2)cc1=O`: inactive: -5.65%; `CCOc1ccc(S(=O)(=O)NCCc2csc3nc(-c4ccc(OC)c(OC)c4)nn23)cc1`: inactive: -3.34%.
Next, `Cc1nc(SCc2cc(=O)c3cccc(F)c3[nH]2)n[nH]1`: inactive: -1.45%; `CCc1ccc(NC(=O)CC2C(=O)NCCN2C(=O)c2ccccc2OC)cc1` (stereo not given): inactive: -14.6%.
Take `CC(C)c1ccc(NC(=O)CSc2ncnc3c2sc2ccccc23)cc1`: the “activity change, positive = activation” value is inactive: -21.5%.
Next, `Clc1cccc(CSc2nc(NCCc3ccccc3)c3ccccc3n2)c1`: inactive: -10.9%; `COc1ccccc1CNCc1ccc(C(=O)O)s1`: inactive: -5.47%.
Consider `COc1ccc(NC(=O)Cn2ncc3c(C)n(Cc4cccc(Cl)c4)c(C)c3c2=O)cc1`, for which the “activity change, positive = activation” value is inactive: -5.78%.
Next, `COc1cccc(NC(=O)CCSc2nc(-c3ccco3)cc(C(F)(F)F)n2)c1`: inactive: -7.34%; `CN1C[C@H](C(=O)N[C@]2(C)O[C@@]3(O)[C@@H]4CCCN4C(=O)[C@H](Cc4ccccc4)N3C2=O)C[C@@H]2c3cccc4[nH]cc(c34)C[C@H]21`: inactive: -14.2%; `CCOc1ccc(CCNC(=O)c2cc3cc4cc(OC)ccc4nc3s2)cc1OCC`: inactive: -16.3%.
Next, `CCc1nn2c(=O)cc(COC(=O)c3cccc(NC(=O)COc4ccccc4)c3)nc2s1`: inactive: 33.6%; `COc1ccc(-c2noc(N3CCN(c4ccc(Cl)cc4)CC3)n2)cc1OC`: inactive: -3.46%; `CCOc1ccccc1NC(=O)C(=O)c1cc(C)n(-c2cccc(C)c2C)c1C`: inactive: -1.47%.
